Experimental data as given in PubChem BioAssay (NCI).
Values joined by “and” are separate entries in the source; they are usually repeats but may differ in a detail not shown here. Equal entries are not always repeated.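 Exposure lasted 48 hours, with cells grown in 96-well plates and compounds tested at five concentrations. GI50 is the concentration that inhibits growth by half. TGI denotes the concentration required for complete inhibition of growth.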

What follows are compounds tested on NCI-H322M lung (assay: growth of human tumour cells (NCI), 48 h).

Row | SMILES | TGI | GI50 [µM]
1 | CCOc1cc(C=O)c2c(ccc3ccc(OC)c(OC)c32)c1OC | > 100 µM | 
2 | COc1ccc2c(c1)CCc1cnn(C3OC(COC(C)=O)C(OC(C)=O)C(OC(C)=O)C3OC(C)=O)c1-2 (configuration not stated) | > 100 µM | 
3 | COc1ccc2nc3cccc([N+](=O)[O-])c3c(NCCN(CCO)CCO)c2c1 | 1.39 µM | 0.11
4 | Cc1cc(C)nc(NS(=O)(=O)c2ccc(NC(=O)c3cccc4c(Nc5ccc(S(=O)(=O)Nc6nc(C)cc(C)n6)cc5)c5ccccc5nc34)cc2)n1 | 42.3 µM | 
5 | Nc1ccc2cc(S(=O)(=O)O)cc(O)c2c1N=Nc1ccc(NC(=O)Nc2ccc(N=Nc3c(N)ccc4cc(S(=O)(=O)O)cc(O)c34)c(S(=O)(=O)O)c2)cc1S(=O)(=O)O | > 100 µM | 
6 | COc1ccc(-c2nc(N(C)C)c3ccccc3n2)cc1 | 25.2 µM | 
7 | COc1ccc(NC(=O)CC/C(CC(=O)c2ccccc2Cl)=N\Nc2nnc(C)n2N)cc1 | > 100 µM | 
8 | O=C1ON(Cc2ccccc2)C(c2ccccc2)N1c1ccccc1 (configuration not stated) | > 100 µM | 
9 | CC(=O)Oc1ccc2ccc(=O)oc2c1OC(C)=O | > 100 µM | 
10 | Cc1cc(Cl)ccc1NC(=O)/C(Cl)=C(/Cl)C(=O)O | 29.5 µM | 
11 | Cc1ccc(S(=O)(=O)c2c(N)c3nccn3c3nc4ccccc4nc23)cc1 | > 100 µM | 
12 | Nc1ccn([C@H]2CO[C@@H](CO)O2)c(=O)n1 | > 100 µM | 
13 | O/N=C(\C=N\O)c1ccc2c(c1)Sc1ccccc1O2 | 94.8 µM | 
14 | CCOC(=O)c1c[nH]c2c(OCc3ccccc3)c3ccccc3c(O)c2c1=O | 82.2 µM | 23
15 | C[C@@H](C(=O)O)c1ccc(-c2ccccc2)c(F)c1 | > 100 µM | 
16 | COc1cc(C(=O)NC2CCN(C)CC2)ccc1Nc1ncc2c(n1)N(C1CCCC1)CC(F)(F)C(=O)N2C | 11.7 µM | 0.0776
17 | CN(C)C(=S)N/N=C\C(=N/NC(=S)N(C)C)c1ccccc1 | > 100 µM | 
18 | O=C1Nc2cc(Cl)ccc2Oc2cc(Oc3ccccc3)ccc21 | > 100 µM | 9.98
19 | COc1ccc(S(=O)(=O)N2CCN(C(=O)OCc3ccccc3)CC2C(=O)NO)cc1 (configuration not stated) | > 25 µM | > 25
20 | COC(=O)C1=C(C(=O)OC)SC(=C2c3ccsc3-c3sccc32)S1 | > 100 µM | 

Row | SMILES | TGI | GI50 [µM]
21 | CN(C)c1ccccc1CC(c1c[nH]c2ccccc12)c1c[nH]c2ccccc12 | 27.3 µM | 
22 | CC(C)=CCC[C@](C)(O)[C@H]1CC[C@]2(C)[C@@H]1[C@H](O)C[C@@H]1[C@@]3(C)CC[C@H](O[C@@H]4O[C@H](CO)[C@@H](O)[C@H](O)[C@H]4O)C(C)(C)[C@@H]3CC[C@]12C | 35.2 µM | 
23 | C[As](C)Sc1ccnc(S[As](C)C)n1 | > 54.8 µM | 29.5
24 | Cn1c(=O)nc2n(CCO)ccnc-2c1=O | > 100 µM | 
25 | COC(=O)NNc1c([N+](=O)[O-])cnn(-c2ccccc2)c1=O | 10.4 µM | 
26 | COc1c(OC(C)=O)c(OC(C)=O)cc2c1-c1ccc(OC)c(=O)cc1C(NC(C)=O)CC2 (configuration not stated) | > 27.3 µM | 
27 | O=C(Nc1ccc(Cl)c(Cl)c1)C(=O)Nn1c(=S)[nH]c2ccccc2c1=O | > 100 µM | 
28 | COc1cc(C2SCC(=O)N2c2ccc(-c3ccc(-n4c(-c5ccccc5)nc5ccccc5c4=O)cc3)cc2)ccc1O (configuration not stated) | > 100 µM | 
29 | CC(C)(C)c1ccc(-c2nc3ccccc3c(=O)o2)cc1 | > 100 µM | 
30 | CC1CC(=O)N2CCCNC2=C1C#N (configuration not stated) | > 100 µM | 
31 | CSC(=NC1CC(n2cc(C)c(=O)[nH]c2=O)OC1CO)NC#N (configuration not stated) | > 100 µM | 
32 | NC(=O)c1nnn(Cc2cc(Cl)c(C(=O)c3ccc(Cl)cc3)c(Cl)c2)c1N | > 9.09 µM and 39 µM | > 9.09
33 | C/C(=N\Nc1nc2ccccc2[nH]1)c1ccncn1 | > 100 µM | 
34 | SC[C@@H]1COC[C@H](CS)S1 | > 100 µM | 
35 | CCc1ccc(CCC(=O)O)nc1 | > 100 µM | 
36 | COc1cc2c(c(N)c1OC)C(=O)/C(=C/c1cc(C)c(O)c(C)c1)C2 | > 100 µM | 
37 | COc1ccc(C(=O)/C=C2\c3ccccc3C(=O)N2C)cc1 | > 100 µM | 
38 | Cn1c(N(CCO)CCO)cnc1[N+](=O)[O-] | > 100 µM | 
39 | COc1ccc(C(=O)/C(=N/Nc2ccccc2)c2ccc(OC)cc2)cc1 | > 100 µM | 
40 | CC1=C2C(=O)C3[C@@H](CCC4=CC(=O)CC[C@@]43C)C2CC[C@]12O[C@@H]1C[C@H](C)CN[C@H]1[C@H]2C (some centres not stated) | > 100 µM | 
